Source: PMC12136788
The other results are listed elsewhere or left out.

T1: UNK ZnF1-6 (called full-length) (human, UniProt Q9C0B0 30-357)
T1 sequence: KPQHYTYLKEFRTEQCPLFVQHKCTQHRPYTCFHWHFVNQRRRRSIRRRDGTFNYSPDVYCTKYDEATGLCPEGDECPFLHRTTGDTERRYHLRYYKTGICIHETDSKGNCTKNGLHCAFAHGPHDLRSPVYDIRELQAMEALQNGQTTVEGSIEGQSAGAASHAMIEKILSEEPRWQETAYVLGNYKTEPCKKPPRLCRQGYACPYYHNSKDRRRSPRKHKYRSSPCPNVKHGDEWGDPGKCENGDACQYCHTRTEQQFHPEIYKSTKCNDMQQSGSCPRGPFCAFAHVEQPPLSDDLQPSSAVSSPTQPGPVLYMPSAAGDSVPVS

B1: ENSG00000136451:be:win_2151|3pUTR|ENSG00000136451|bound_else_gene|NA|bound_elsewhere_windowed (ssRNA)
RNA: GGGAGUUCUACAGUCCGACGAUCUAUGCAAAGCAUAUGAUAAUUUAUCAUUCUAACUUCAACGUAUAAUAGGGAUUGUGACCUGAUAUUUGGAGAUGUAAAUAUUGCUCAGCAUAUUAAUCCCGAUGGAAUAUAGCAUUGUAGCAACAGAGGAUUGAGCAUCA
B2: chr13:27440139:27440263:-|CDS|ENSG00000122033|unk|total|mutant (ssRNA)
RNA: GGGAGUUCUACAGUCCGACGAUCAAUGAAGGAAAAAAGACAAAAAAGAAUAAAACAGCUUUCCGUAACGUUGGAAGAAAAAUCCGUCAGCGAGUUAUUCACUUAUUUGAUGAGAAGGGCAAUGAUUUGGGAAACAUGCACCGACAACAGAGGAUUGAGCAUCA
B3: chr6:350928:351029:+|3pUTR|ENSG00000112679|unk|total|mutant (ssRNA)
RNA: GGGAGUUCUACAGUCCGACGAUCCCACAGAGUUCCGGCUGGUGCUGCCAAAAAGAAAAGCAACACCGAGUUUAAGUAUCCAGCCGUGAUUUGUAAACUUGUUUUUCAUUUGAAGCUGAAUAUAUACGCCGUCAUGUUUAUGUUCAACAGAGGAUUGAGCAUCA
B4: chr1:93365539:93365640:+|3pUTR|ENSG00000117505|unk|FALSE|unique (ssRNA)
RNA: GGGAGUUCUACAGUCCGACGAUCAGGAGGCAAAAUUGCACCCUGUUGAAAACCACCACCUUAGAUCAUCUAGGUUUUACUUUUAGGAUAAGACACUUGAGGGAAAGGCUGUGAAACUGAACCUCUGUUAGAAGCAACACACAGCAACAGAGGAUUGAGCAUCA
B5: ENSG00000070961:be:win_6101|3pUTR|ENSG00000070961|bound_else_gene|NA|bound_elsewhere_windowed (ssRNA)
RNA: GGGAGUUCUACAGUCCGACGAUCUAAAGAUCUUGGAUCCCAUUAUAUAGUAUGUAUAGCUGAAAUCUGUAAUUCAAUCACUUUUUCUCUUUUAUCCUCUAACCAAAAAAUUGUUUAAUUUUGCAUCCCAAAUGUUUUUAAUCUCAACAGAGGAUUGAGCAUCA
B6: chr14:55188946:55189174:-|CDS|ENSG00000126787|unk|total|mutant (ssRNA)
RNA: GGGAGUUCUACAGUCCGACGAUCAUUGCUCACCGGAAAUCACUGUCUCAGAAAGAAAACCGACAUAAGGAAUACGAACGAAACCGACACUUUGGUUUGAAAGAUGUAAACAUUCCAACCUUGGAAGGCCGAAUUCUUGUUGAACAACAGAGGAUUGAGCAUCA
B7: chr4:48579112:48579224:-|CDS|ENSG00000075539|unk|total|mutant (ssRNA)
RNA: GGGAGUUCUACAGUCCGACGAUCCUCUAUUGCCCCCGCUCGACCGAUUUACAAACUUCCGCAGAAUGGAACUCUUCUCCUAUCCGCCACCAGUUUGAUGUGAUCCGUCCAUCACAUAUAUGGAUAUUUGCACAUGUGACCCAACAACAGAGGAUUGAGCAUCA
B8: chr10:30461265:30461366:+|3pUTR|ENSG00000107968|unk|FALSE|unique (ssRNA)
RNA: GGGAGUUCUACAGUCCGACGAUCUCUUUGAGCCUUUAUUGGUAAAUUCUGGUAUACAUUGAAUUCAUUAUAAUUUGGGUGACUAGAACAACUUGAAGAUUGUAGCAAUAAGCUGGACUAGUGUCCUAAAAAUGGCUAACUGAUCAACAGAGGAUUGAGCAUCA
B9: chrX:153907366:153907962:-|three_prime_utr|ENSG00000089820|control|control|control (ssRNA)
RNA: GGGAGUUCUACAGUCCGACGAUCAGGCUUCUCCCGGGGCCCUGGGGCCCCAGCCUCACCCUCAGCUUCCCACCCCCAGGGCCUAGACACGACCCCCAAGCCACACUGAGGUGCCGCUGCUGGAGAUGCGUGCCCCCGGCGGCUCAACAGAGGAUUGAGCAUCA
B10: ENSG00000136451:be:win_2551|3pUTR|ENSG00000136451|bound_else_gene|NA|bound_elsewhere_windowed (ssRNA)
RNA: GGGAGUUCUACAGUCCGACGAUCUCACUAGAGUUUAUGUCUUAUAUUAAAUUGUAUACAGUUUUUAUUCUAACCACUAACUAGGUAGUGUAUGCCCCUUCAGAACAUGCAGAGUGUAUCUUUUUUUAAAUUUCUCCUUCCGUUCAACAGAGGAUUGAGCAUCA
B11: chr16:22286016:22286117:+|3pUTR|ENSG00000103319|msi1|FALSE|unique (ssRNA)
RNA: GGGAGUUCUACAGUCCGACGAUCCUGAGCCCAGCCAAGACUUCAGUGUUGACUGCUUUGGAGGCACAAACCCAUGCAAGCGUUAGUUCCAAAGUUCAGUGUGUACCCUUAAAUGAACAAUGAAGCAGGUAAAAUUACCCUUGACAACAGAGGAUUGAGCAUCA
B12: chr7:33006061:33006162:+|3pUTR|ENSG00000122642|msi1_unk|total|mutant (ssRNA)
RNA: GGGAGUUCUACAGUCCGACGAUCGGCAUCUCAGACCACAAACCGAGAAUUUGAUUCCUCAUUUGCCACAUAAGUCAUCUGCUCCGCUUUUCCUUUCCUUUUUUUUUUUUUUUUUUUUUCUGGAGGCAGAGUCUCCCUUUGUCGCAACAGAGGAUUGAGCAUCA
B13: chr8:72021249:72022905:-|three_prime_utr|ENSG00000104321|control|control|control (ssRNA)
RNA: GGGAGUUCUACAGUCCGACGAUCGCAGAUAUGUUCAAAUUGGACUGGACUUUGAUGAGAUAUAAUCUCAUUAUUUGAAUGGGUAGAAAAUGAAUUUGCUAGAACACACAUUUUUAAUGAAAAGAAGUAAUAAAUGUAACUAUUCAACAGAGGAUUGAGCAUCA
B14: chr11:61866713:61866887:+|3pUTR|ENSG00000134824|msi1|total|mutant (ssRNA)
RNA: GGGAGUUCUACAGUCCGACGAUCCUCUCCUGUCUGAACCUGCCCUUACUGUGUUUAACCUGUUGCUCCAGGAUGCAUUCUGACCGGAGGGGGCGGCAGGGCUGGGCCUUGUGACAAUCUGCCUUUCACCACAUGGCCUUGCCUCAACAGAGGAUUGAGCAUCA

Target: T1, UNK ZnF1-6 (called full-length)
Experiment: nsRBNS (natural sequence RNA bind-n-seq); RBNS binding buffer (assumed for nsRBNS): 25 mM Tris pH 7.5, 150 mM KCl, 3 mM MgCl2, 0.01% Triton X-100, 500 ug/ml BSA, 20 U/ml SUPERase-In, 4 C; UNK is unkempt and MSI1 is Musashi-1; names of the RNAs are library labels; protein concentration not given here; high values mean tight binding

For B1, which binding signal is on record?
Its binding signal is 0.422 enrichment R.

B2 was tested. Which binding signal did it give?
Its binding signal is 0.393 enrichment R.

For B3, which binding signal is on record?
Its binding signal is 0.345 enrichment R.

With B4 as the binder, how does the binding signal read?
Its binding signal is 5.47 enrichment R.

Which binding signal does the source give for B5 here?
Its binding signal is 39 enrichment R.

For B6, which binding signal is on record?
The binding signal was 0.207 enrichment R.

How did the binding signal turn out when B7 was run?
Its binding signal is 0.64 enrichment R.

For B8, which binding signal is on record?
The binding signal was 0.352 enrichment R.

Which binding signal does the source give for B9 here?
The binding signal was 0.903 enrichment R.

B10 was tested. Which binding signal did it give?
The binding signal was 11.6 enrichment R.

B11 was tested. Which binding signal did it give?
The binding signal was 0.467 enrichment R.

Which binding signal does the source give for B12 here?
The binding signal was 2.85 enrichment R.

Which binding signal does the source give for B13 here?
The binding signal was 3.2 enrichment R.

For B14, which binding signal is on record?
The binding signal was 0.758 enrichment R.
